# Results published in the supplement of paper PMC8728848.
# Some of the results follow.
# B1: MSMEG3662-2a (Mycobacterium smegmatis), A0QYH7_MYCS2 (protein)
# chain: MGDTLTAGQKLERGGSLQSGNGAYTLTLQDDGNLVLYARDKAVWSTGTNGQDVVRAEVQTDGNFVLYTAEKPVWHTDTKGKKEVKLVLQDDRNLVLYAKDGPAWSSKTDTTEPPPPAPEPEKEAEVAPAAAEEAAPAPVAEPAPAEPAPAAPPPAPPAPRTYTVVSGDTLWAIAERFYGDGSKYQQIADASGIANPDLIHPGQVLTIP
# How the values were obtained:
# Assay in all cases: glycan array binding signal (z-score within array); higher = stronger binding
# Conditions in all cases: glycan notation: IUPAC condensed, linker removed
# [1] = target: Gal(b1-3)GlcNAc(b1-2)Man(a1-3)[Gal(b1-3)GlcNAc(b1-2)Man(a1-6)]Man(b1-4)GlcNAc(b1-4)GlcNAc
# In short: (§1)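 Negative Z-scores can be read as non-binding. The Z-score is calculated within each array and then averaged across arrays of one protein sequence at different concentrations or buffers and across linkers. Arrays, 3228 in all, were curated from the Consortium for Functional Glycomics database and kept only where the protein sequence was available.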
# [2] = target: Gal(b1-3)GlcNAc(b1-2)Man(a1-3)[Gal(b1-3)GlcNAc(b1-2)Man(a1-6)]Man(b1-4)GlcNAc(b1-4)[Fuc(a1-6)]GlcNAc
# In short: as §1
# [3] = target: Gal(b1-3)GlcNAc(b1-2)Man(a1-3)[GlcNAc(b1-4)][Gal(b1-3)GlcNAc(b1-2)Man(a1-6)]Man(b1-4)GlcNAc(b1-4)GlcNAc
# In short: as §1
# [4] = target: Gal(b1-3)GlcNAc(b1-2)[Gal(b1-3)GlcNAc(b1-6)]Man(a1-6)[Gal(b1-3)GlcNAc(b1-2)Man(a1-3)]Man(b1-4)GlcNAc(b1-4)GlcNAc
# In short: as §1
# [5] = target: Gal(b1-3)GlcNAc(b1-3)Gal(b1-3)GlcNAc
# In short: as §1
# [6] = target: Gal(b1-3)GlcNAc(b1-3)Gal(b1-4)Glc
# In short: as §1
# [7] = target: Gal(b1-3)GlcNAc(b1-3)Gal(b1-4)GlcNAc
# In short: as §1
# [8] = target: Gal(b1-3)GlcNAc(b1-3)Gal(b1-4)GlcNAc(b1-2)Man(a1-3)[Gal(b1-3)GlcNAc(b1-3)Gal(b1-4)GlcNAc(b1-2)Man(a1-6)]Man(b1-4)GlcNAc(b1-4)GlcNAc
# In short: as §1
# [9] = target: Gal(b1-3)GlcNAc(b1-3)Gal(b1-4)GlcNAc(b1-2)[Gal(b1-3)GlcNAc(b1-3)Gal(b1-4)GlcNAc(b1-6)]Man(a1-6)[Gal(b1-3)GlcNAc(b1-3)Gal(b1-4)GlcNAc(b1-2)Man(a1-3)]Man(b1-4)GlcNAc(b1-4)[Fuc(a1-6)]GlcNAc
# In short: as §1
# [10] = target: Gal(b1-3)GlcNAc(b1-3)Gal(b1-4)GlcNAc(b1-3)Gal(b1-4)GlcNAc(b1-2)[Gal(b1-3)GlcNAc(b1-3)Gal(b1-4)GlcNAc(b1-3)Gal(b1-4)GlcNAc(b1-6)]Man(a1-6)[Gal(b1-3)GlcNAc(b1-3)Gal(b1-4)GlcNAc(b1-3)Gal(b1-4)GlcNAc(b1-2)Man(a1-3)]Man(b1-4)GlcNAc(b1-4)[Fuc(a1-6)]GlcNAc
# In short: as §1
# [11] = target: Gal(b1-3)GlcNAc(b1-3)Gal(b1-4)GlcNAc(b1-6)[Gal(b1-3)GlcNAc(b1-3)]Gal(b1-4)Glc
# In short: as §1
# [12] = target: Gal(b1-3)GlcNAc(b1-3)Gal(b1-4)[Fuc(a1-3)]GlcNAc
# In short: as §1
# [13] = target: Gal(b1-3)GlcNAc(b1-3)Gal(b1-4)[Fuc(a1-3)]GlcNAc(b1-6)[Gal(b1-3)GlcNAc(b1-3)]Gal(b1-4)Glc
# In short: as §1
# [14] = target: Gal(b1-3)GlcNAc(b1-3)GalNAc
# In short: as §1
# [15] = target: Gal(b1-3)GlcNAc(b1-6)Gal(b1-4)GlcNAc
# In short: as §1
# [16] = target: Gal(b1-3)GlcNAc(b1-6)GalNAc
# In short: as §1
# [17] = target: Gal(b1-3)GlcNAc(b1-6)[Gal(b1-3)]GalNAc
# In short: as §1
# Gal(b1-3)GlcNAc6S = target: Gal(b1-3)GlcNAc6S
# In short: as §1
# [18] = target: Gal(b1-3)[Fuc(a1-4)]GlcNAc
# In short: as §1
# [19] = target: Gal(b1-3)[Fuc(a1-4)]GlcNAc(b1-2)Man
# In short: as §1
# [20] = target: Gal(b1-3)[Fuc(a1-4)]GlcNAc(b1-2)Man(a1-3)[Gal(b1-3)[Fuc(a1-4)]GlcNAc(b1-2)Man(a1-6)]Man(b1-4)GlcNAc(b1-4)[Fuc(a1-6)]GlcNAc
# In short: as §1
# [21] = target: Gal(b1-3)[Fuc(a1-4)]GlcNAc(b1-3)Gal(b1-3)[Fuc(a1-4)]GlcNAc
# In short: as §1
# [22] = target: Gal(b1-3)[Fuc(a1-4)]GlcNAc(b1-3)Gal(b1-4)[Fuc(a1-3)]GlcNAc
# In short: as §1
# [23] = target: Gal(b1-3)[Fuc(a1-4)]GlcNAc(b1-6)GalNAc
# In short: as §1
# [24] = target: Gal(b1-3)[GlcNAc(b1-6)]GalNAc
# In short: as §1
# [25] = target: Gal(b1-3)[Neu5Ac(a2-6)]GalNAc
# In short: as §1
# [26] = target: Gal(b1-3)[Neu5Ac(a2-6)]GlcNAc(b1-4)Gal(b1-4)Glc
# In short: as §1
# [27] = target: Gal(b1-3)[Neu5Ac(b2-6)]GalNAc
# In short: as §1
# Gal(b1-4)Gal = target: Gal(b1-4)Gal
# In short: as §1
# [28] = target: Gal(b1-4)GalNAc(a1-3)[Fuc(a1-2)]Gal(b1-4)GlcNAc
# In short: as §1
# [29] = target: Gal(b1-4)GalNAc(b1-3)[Fuc(a1-2)]Gal(b1-4)GlcNAc
# In short: as §1
# Gal(b1-4)Glc = target: Gal(b1-4)Glc
# In short: as §1
# Gal(b1-4)Glc6S = target: Gal(b1-4)Glc6S
# In short: as §1
# Gal(b1-4)GlcNAc = target: Gal(b1-4)GlcNAc
# In short: as §1
# [30] = target: Gal(b1-4)GlcNAc(a1-6)Gal(b1-4)GlcNAc
# In short: as §1
# Gal(b1-4)GlcNAc(b1-2)Man = target: Gal(b1-4)GlcNAc(b1-2)Man
# In short: as §1
# [31] = target: Gal(b1-4)GlcNAc(b1-2)Man(a1-3)Man(b1-4)GlcNAc(b1-4)GlcNAc
# In short: as §1
# [32] = target: Gal(b1-4)GlcNAc(b1-2)Man(a1-3)[Gal(b1-4)GlcNAc(b1-2)Man(a1-6)]Man(b1-4)GlcNAc(b1-4)GlcNAc
# In short: as §1
# [33] = target: Gal(b1-4)GlcNAc(b1-2)Man(a1-3)[Gal(b1-4)GlcNAc(b1-2)Man(a1-6)]Man(b1-4)GlcNAc(b1-4)[Fuc(a1-6)]GlcNAc
# In short: as §1
# [34] = target: Gal(b1-4)GlcNAc(b1-2)Man(a1-3)[Gal(b1-4)GlcNAc(b1-2)Man(a1-6)][Gal(b1-4)GlcNAc(b1-4)]Man(b1-4)GlcNAc(b1-4)[Fuc(a1-6)]GlcNAc
# In short: as §1
# [35] = target: Gal(b1-4)GlcNAc(b1-2)Man(a1-3)[Gal(b1-4)GlcNAc(b1-2)Man(a1-6)][GlcNAc(b1-4)]Man(b1-4)GlcNAc(b1-4)[Fuc(a1-6)]GlcNAc
# In short: as §1
# [36] = target: Gal(b1-4)GlcNAc(b1-2)Man(a1-3)[GlcNAc(b1-2)Man(a1-6)]Man(b1-4)GlcNAc(b1-4)GlcNAc
# In short: as §1
# [37] = target: Gal(b1-4)GlcNAc(b1-2)Man(a1-3)[GlcNAc(b1-4)][Gal(b1-4)GlcNAc(b1-2)Man(a1-6)]Man(b1-4)GlcNAc(b1-4)GlcNAc
# In short: as §1
# [38] = target: Gal(b1-4)GlcNAc(b1-2)Man(a1-3)[Man(a1-6)]Man(b1-4)GlcNAc(b1-4)GlcNAc
# In short: as §1
# [39] = target: Gal(b1-4)GlcNAc(b1-2)Man(a1-6)Man(b1-4)GlcNAc(b1-4)GlcNAc
# In short: as §1
binder,measurement,setting,value
B1,glycan array binding signal (z-score),[1],-0.013
same,glycan array binding signal (z-score),[2],-0.162
same,glycan array binding signal (z-score),[3],-0.022
same,glycan array binding signal (z-score),[4],0.06
same,glycan array binding signal (z-score),[5],-0.094
same,glycan array binding signal (z-score),[6],-0.073
same,glycan array binding signal (z-score),[7],-0.228
same,glycan array binding signal (z-score),[8],-0.05
same,glycan array binding signal (z-score),[9],0.25
same,glycan array binding signal (z-score),[10],0.092
same,glycan array binding signal (z-score),[11],-0.082
same,glycan array binding signal (z-score),[12],-0.048
same,glycan array binding signal (z-score),[13],-0.062
same,glycan array binding signal (z-score),[14],-0.02
same,glycan array binding signal (z-score),[15],-0.238
same,glycan array binding signal (z-score),[16],-0.129
same,glycan array binding signal (z-score),[17],-0.135
same,glycan array binding signal (z-score),Gal(b1-3)GlcNAc6S,-0.125
same,glycan array binding signal (z-score),[18],-0.12
same,glycan array binding signal (z-score),[19],-0.109
same,glycan array binding signal (z-score),[20],-0.061
same,glycan array binding signal (z-score),[21],-0.162
same,glycan array binding signal (z-score),[22],0.029
same,glycan array binding signal (z-score),[23],-0.111
same,glycan array binding signal (z-score),[24],0.02
same,glycan array binding signal (z-score),[25],-0.105
same,glycan array binding signal (z-score),[26],-0.186
same,glycan array binding signal (z-score),[27],0.064
same,glycan array binding signal (z-score),Gal(b1-4)Gal,0.013
same,glycan array binding signal (z-score),[28],-0.098
same,glycan array binding signal (z-score),[29],-0.151
same,glycan array binding signal (z-score),Gal(b1-4)Glc,-0.09
same,glycan array binding signal (z-score),Gal(b1-4)Glc6S,0.057
same,glycan array binding signal (z-score),Gal(b1-4)GlcNAc,-0.102
same,glycan array binding signal (z-score),[30],-0.067
same,glycan array binding signal (z-score),Gal(b1-4)GlcNAc(b1-2)Man,-0.01
same,glycan array binding signal (z-score),[31],-0.081
same,glycan array binding signal (z-score),[32],-0.067
same,glycan array binding signal (z-score),[33],-0.059
same,glycan array binding signal (z-score),[34],-0.072
same,glycan array binding signal (z-score),[35],-0.072
same,glycan array binding signal (z-score),[36],0.07
same,glycan array binding signal (z-score),[37],-0.149
same,glycan array binding signal (z-score),[38],0.104
same,glycan array binding signal (z-score),[39],-0.075
